Experimental data: the supplement of paper PMC8728848
Some of the results follow.

Legend:
Assay in all cases: glycan array binding signal (z-score within array); higher = stronger binding
Conditions in all cases: glycan notation: IUPAC condensed, linker removed
[1] = biological target: GalNAc(b1-4)GlcNAc(b1-2)Man
Summary of the method: (§1)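 Columns mapping to the same glycan were averaged after glycan names were converted to IUPAC-condensed notation. The data come from 3228 arrays in the Consortium for Functional Glycomics database, limited to those with an available protein sequence. Binding is reported as a within-array Z-score averaged across arrays of one protein sequence and across linkers.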

[2] = biological target: GalNAc(b1-4)GlcNAc(b1-2)Man(a1-3)[GalNAc(b1-4)GlcNAc(b1-2)Man(a1-6)]Man(b1-4)GlcNAc(b1-4)GlcNAc
Summary of the method: as §1

[3] = biological target: GalNAc(b1-4)GlcNAc(b1-3)GalNAc(b1-4)GlcNAc
Summary of the method: as §1

[4] = biological target: GalNAc(b1-4)GlcNAc6S
Summary of the method: as §1

[5] = biological target: GalNAc(b1-6)GalNAc
Summary of the method: as §1

[6] = biological target: GalNAc3S(b1-4)GlcNAc
Summary of the method: as §1

[7] = biological target: GalNAc3S(b1-4)GlcNAc3S
Summary of the method: as §1

[8] = biological target: GalNAc3S(b1-4)[Fuc(a1-3)]GlcNAc
Summary of the method: as §1

[9] = biological target: GalNAc4S6S(b1-4)GlcNAc
Summary of the method: as §1

[10] = biological target: GalNAc6S(b1-4)GlcNAc
Summary of the method: as §1

[11] = biological target: Glc(a1-4)Glc
Summary of the method: as §1

[12] = biological target: Glc(a1-4)Glc(a1-4)Glc(a1-4)Glc
Summary of the method: as §1

[13] = biological target: Glc(a1-6)Glc(a1-6)Glc
Summary of the method: as §1

[14] = biological target: Glc(a1-6)Glc(a1-6)Glc(a1-6)Glc
Summary of the method: as §1

[15] = biological target: Glc(b1-4)Glc
Summary of the method: as §1

[16] = biological target: Glc(b1-6)Glc
Summary of the method: as §1

[17] = biological target: GlcA(b1-3)Gal
Summary of the method: as §1

[18] = biological target: GlcA(b1-3)GlcNAc
Summary of the method: as §1

[19] = biological target: GlcA(b1-6)Gal
Summary of the method: as §1

[20] = biological target: GlcA3S(b1-3)Gal(b1-4)GlcNAc(b1-2)Man
Summary of the method: as §1

[21] = biological target: GlcA3S(b1-3)Gal(b1-4)GlcNAc(b1-3)Gal(b1-4)Glc
Summary of the method: as §1

[22] = biological target: GlcNAc(a1-3)Gal(b1-4)GlcNAc
Summary of the method: as §1

[23] = biological target: GlcNAc(a1-4)Gal(b1-3)GlcNAc
Summary of the method: as §1

[24] = biological target: GlcNAc(a1-4)Gal(b1-4)GalNAc
Summary of the method: as §1

[25] = biological target: GlcNAc(a1-4)Gal(b1-4)GlcNAc
Summary of the method: as §1

[26] = biological target: GlcNAc(a1-4)Gal(b1-4)GlcNAc(b1-3)Gal(b1-4)Glc
Summary of the method: as §1

[27] = biological target: GlcNAc(a1-4)Gal(b1-4)GlcNAc(b1-3)Gal(b1-4)GlcNAc
Summary of the method: as §1

[28] = biological target: GlcNAc(a1-4)Gal(b1-4)GlcNAc(b1-3)Gal(b1-4)GlcNAc(b1-3)Gal(b1-4)GlcNAc
Summary of the method: as §1

[29] = biological target: GlcNAc(a1-4)Gal(b1-4)GlcNAc(b1-3)Gal(b1-4)[Fuc(a1-3)]GlcNAc(b1-3)Gal(b1-4)[Fuc(a1-3)]GlcNAc
Summary of the method: as §1

[30] = biological target: GlcNAc(a1-6)Gal(b1-4)GlcNAc
Summary of the method: as §1

[31] = biological target: GlcNAc(b1-2)Gal(b1-3)GalNAc
Summary of the method: as §1

[32] = biological target: GlcNAc(b1-2)Man(a1-3)[GlcNAc(b1-2)Man(a1-6)]Man(b1-4)GlcNAc(b1-4)GlcNAc
Summary of the method: as §1

[33] = biological target: GlcNAc(b1-2)Man(a1-3)[GlcNAc(b1-2)Man(a1-6)]Man(b1-4)GlcNAc(b1-4)[Fuc(a1-6)]GlcNAc
Summary of the method: as §1

[34] = biological target: GlcNAc(b1-2)Man(a1-3)[GlcNAc(b1-4)][GlcNAc(b1-2)Man(a1-6)]Man(b1-4)GlcNAc(b1-4)GlcNAc
Summary of the method: as §1

[35] = biological target: GlcNAc(b1-2)Man(a1-3)[GlcNAc(b1-4)][GlcNAc(b1-2)Man(a1-6)]Man(b1-4)GlcNAc(b1-4)[Fuc(a1-6)]GlcNAc
Summary of the method: as §1

[36] = biological target: GlcNAc(b1-2)[GlcNAc(b1-4)]Man(a1-3)[GlcNAc(b1-2)Man(a1-6)]Man(b1-4)GlcNAc(b1-4)GlcNAc
Summary of the method: as §1

[37] = biological target: GlcNAc(b1-2)[GlcNAc(b1-4)]Man(a1-3)[GlcNAc(b1-4)][GlcNAc(b1-2)Man(a1-6)]Man(b1-4)GlcNAc(b1-4)GlcNAc
Summary of the method: as §1

B1: SAOUHSC 00176 (Staphylococcus aureus) (protein)
chain: MSKILKCITLAVVMLLIVTACGPNRSKEDIDKALNKDNSKDKPNQLTMWVDGDKQMAFYKKITDQYTKKTGIKVKLVNIGQNDQLENISLDAPAGKGPDIFFLAHDNTGSAYLQGLAAEIKLSKDELKGFNKQALKAMNYDNKQLALPAIVETTALFYNKKLVKNAPQTLEEVEANAAKLTDSKKKQYGMLFDAKNFYFNYPFLFGNDDYIFKKNGSEYDIHQLGLNSKHVVKNAERLQKWYDKGYLPKAATHDVMIGLFKEGKVGQFVTGPWNINEYQETFGKDLGVTTLPTDGGKPMKPFLGVRGWYLSEYSKHKYWAKDLMLYITSKDTLQKYTDEMSEITGRVDVKSSNPNLKVFEKQARHAEPMPNIPEMRQVWEPMGNASIFISNGKNPKQALDEATNDITQNIKILHPSQNDKKGD
glycan array binding signal (z-score) [1]: -0.128 | glycan array binding signal (z-score) [2]: 0.072 | glycan array binding signal (z-score) [3]: -0.092 | glycan array binding signal (z-score) [4]: -0.057 | glycan array binding signal (z-score) [5]: -0.168 | glycan array binding signal (z-score) [6]: -0.115 | glycan array binding signal (z-score) [7]: -0.084 | glycan array binding signal (z-score) [8]: -0.153 | glycan array binding signal (z-score) [9]: -0.038 | glycan array binding signal (z-score) [10]: -0.104 | glycan array binding signal (z-score) [11]: 4.5 | glycan array binding signal (z-score) [12]: 23.6 | glycan array binding signal (z-score) [13]: -0.136 | glycan array binding signal (z-score) [14]: 0.003 | glycan array binding signal (z-score) [15]: -0.094 | glycan array binding signal (z-score) [16]: -0.037 | glycan array binding signal (z-score) [17]: -0.069 | glycan array binding signal (z-score) [18]: -0.033 | glycan array binding signal (z-score) [19]: -0.08 | glycan array binding signal (z-score) [20]: -0.143 | glycan array binding signal (z-score) [21]: -0.093 | glycan array binding signal (z-score) [22]: -0.156 | glycan array binding signal (z-score) [23]: -0.12 | glycan array binding signal (z-score) [24]: -0.132 | glycan array binding signal (z-score) [25]: -0.211 | glycan array binding signal (z-score) [26]: -0.192 | glycan array binding signal (z-score) [27]: -0.11 | glycan array binding signal (z-score) [28]: -0.186 | glycan array binding signal (z-score) [29]: 0.028 | glycan array binding signal (z-score) [30]: -0.133 | glycan array binding signal (z-score) [31]: -0.062 | glycan array binding signal (z-score) [32]: -0.134 | glycan array binding signal (z-score) [33]: -0.115 | glycan array binding signal (z-score) [34]: -0.056 | glycan array binding signal (z-score) [35]: -0.161 | glycan array binding signal (z-score) [36]: -0.116 | glycan array binding signal (z-score) [37]: -0.052
